Data taken from the supplement of paper PMC5919970.
Structures can show the parent of a compound that is named as a salt. In all, about 2,000 compounds were measured (“fractional viability relative to vehicle”: median about 0.91, lowest 2% from about 0.045 on). This is one part of the list.

System: TYKNU
Assay: fractional viability relative to vehicle; TYKNU is a high-grade serous ovarian cancer line; higher = less growth inhibition
Details: 72 h
Procedure, shortened: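 TYKNU control cells or lentiCRISPRv2 knockout derivatives were plated at 500 cells per well in duplicate into drug-stamped 384-well plates holding a ~2100-compound library at 2 or 10 μM. Culture was in RPMI 1640 with 10% FBS at 37 °C in 5% CO2, with 72 h of drug treatment. Viability was measured by Cell Titer Glo luminescence, and the averaged duplicate treatment wells were normalised to duplicate control wells at the same plate position.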

[1] = 2uM, genotype: DNM1L knockout (sgDNM1L #1)
[2] = 2uM, genotype: sgCTRLA1 (non-targeting control)
[3] = 10uM, genotype: DNM1L knockout (sgDNM1L #1)
[4] = 10uM, genotype: sgCTRLA1 (non-targeting control)

Cn1c(=O)cc(N2CCC[C@@H](N)C2)n(Cc2cc(F)ccc2C#N)c1=O [Trelagliptin] was tested, and the fractional viability [1] was 0.882, the fractional viability [2] was 1.1 and the fractional viability [3] was 0.859. The fractional viability [4] was 0.871.

Compound COc1cc(/C=C/C(=O)N2CCN(CC(=O)N3CCCC3)CC2)cc(OC)c1OC [Cinepazide maleate] has a fractional viability [1] of 1.08, a fractional viability [2] of 0.973 and a fractional viability [3] of 1.1. For the same compound, the fractional viability [4] was 1.02.

Work on O=C(Nc1ccc(OC(F)(F)F)cc1)c1sccc1NCc1ccnc2ccccc12 yielded a fractional viability [1] of 0.926, a fractional viability [2] of 0.906 and a fractional viability [3] of 0.215. The fractional viability [4] was 0.181.

CC(=O)Nc1cccc2c1c(Sc1ccc(Cl)cc1)c(C)n2CC(=O)O showed a fractional viability [1] of 0.843, a fractional viability [2] of 1.24 and a fractional viability [3] of 0.838. The fractional viability [4] was 1.17.

Nc1ncn([C@@H]2O[C@H](CO)[C@@H](O)[C@H]2O)c(=O)n1 [Azacitidine] showed a fractional viability [1] of 1.08, a fractional viability [2] of 1.12 and a fractional viability [3] of 1.12. It also gave a fractional viability [4] of 1.03.

CC(COc1ccccc1)N(CCCl)Cc1ccccc1 (stereo unspecified) [Phenoxybenzamine HCl] gave a fractional viability [1] of 0.953, a fractional viability [2] of 1.02 and a fractional viability [3] of 0.516. The fractional viability [4] was 0.798.

CCCNC(C)C(=O)Nc1ccccc1C (stereo unspecified) [Prilocaine] was tested, and the fractional viability [1] was 1.09, the fractional viability [2] was 1.08 and the fractional viability [3] was 1.05. The fractional viability [4] was 1.15.

Cc1c(-c2ccnn2C)cc(C(=O)NCc2ccc(S(C)(=O)=O)cn2)c(=O)n1-c1cccc(C(F)(F)F)c1 [Alvelestat (AZD9668)] showed a fractional viability [1] of 0.815, a fractional viability [2] of 1.07 and a fractional viability [3] of 0.719. The fractional viability [4] was 0.959.

CC(C)(C)Cn1c(N)nc2ccc(-c3[nH]c(C(C)(C)C)nc3-c3ccc(F)cc3)nc21 gave a fractional viability [1] of 0.941, a fractional viability [2] of 0.92 and a fractional viability [3] of 0.684. The fractional viability [4] was 0.879.

CCCN[C@H]1CCc2nc(N)sc2C1 [Pramipexole] was tested, and the fractional viability [1] was 0.968, the fractional viability [2] was 1.01 and the fractional viability [3] was 0.773. It also gave a fractional viability [4] of 0.919.

COc1ccc(C(=O)CC2(O)C(=O)Nc3c(Cl)ccc(Cl)c32)cc1 (stereo unspecified) was tested, and the fractional viability [1] was 0.264, the fractional viability [2] was 0.243 and the fractional viability [3] was 0.175. For the same compound, the fractional viability [4] was 0.186.

Compound O=C(NC1CCN(CCCCC2(C(=O)NCC(F)(F)F)c3ccccc3-c3ccccc32)CC1)c1ccccc1-c1ccc(C(F)(F)F)cc1 [Lomitapide Mesylate] has a fractional viability [1] of 0.573, a fractional viability [2] of 0.79 and a fractional viability [3] of 0.0435. For the same compound, the fractional viability [4] was 0.0328.

CCOC(=O)c1ccc(OC(=O)CCCCCNC(=N)N)cc1 [Gabexate Mesylate] showed a fractional viability [1] of 1.03, a fractional viability [2] of 1.16 and a fractional viability [3] of 0.907. It also gave a fractional viability [4] of 1.03.

Clc1cccc(-c2nnnn2Cc2cccnc2)c1Cl gave a fractional viability [1] of 0.755, a fractional viability [2] of 0.927 and a fractional viability [3] of 0.755. The fractional viability [4] was 0.73.

For COc1cccc(-c2ccc(NC(=O)C3=C(C(=O)O)CCC3)c(F)c2)c1 [Vidofludimus], the fractional viability [1] was 0.738, the fractional viability [2] was 1.09 and the fractional viability [3] was 0.325. For the same compound, the fractional viability [4] was 0.468.

Cc1cc(=O)oc2cc(O)ccc12 [4-Methylumbelliferone (4-MU)] showed a fractional viability [1] of 0.943, a fractional viability [2] of 1.2 and a fractional viability [3] of 0.901. It also gave a fractional viability [4] of 1.1.

Compound C/C=C1/[C@H](O[C@@H]2O[C@H](CO)[C@@H](O)[C@H](O)[C@H]2O)OC=C(C(=O)OC)[C@H]1CC(=O)OCCc1ccc(O)c(O)c1 [Oleuropein] has a fractional viability [1] of 0.773, a fractional viability [2] of 0.978 and a fractional viability [3] of 0.843. For the same compound, the fractional viability [4] was 0.774.

For O=c1c(-c2ccc(O)cc2)coc2c([C@@H]3O[C@H](CO)[C@@H](O)[C@H](O)[C@H]3O)c(O)ccc12 [Puerarin], the fractional viability [1] was 1.03, the fractional viability [2] was 1.11 and the fractional viability [3] was 1.03. For the same compound, the fractional viability [4] was 1.14.

Cc1cc(C)cc(C(=O)NOCCCCCC(=O)NO)c1 gave a fractional viability [1] of 0.213, a fractional viability [2] of 0.312 and a fractional viability [3] of 0.0689. The fractional viability [4] was 0.0801.

In the case of Cc1cc([C@@H](C)Nc2ccccc2C(=O)O)c2nc(N3CCOCC3)cc(=O)n2c1, the fractional viability [1] was 1.08, the fractional viability [2] was 1.03 and the fractional viability [3] was 0.718. It also gave a fractional viability [4] of 0.926.

For COCCOC(=O)C1=C(C)NC(C)=C(C(=O)OC/C=C/c2ccccc2)C1c1cccc([N+](=O)[O-])c1 (stereo unspecified) [Cilnidipine], the fractional viability [1] was 0.972, the fractional viability [2] was 1.13 and the fractional viability [3] was 0.596. For the same compound, the fractional viability [4] was 1.01.

With CCOc1nc2cccc(C(=O)O)c2n1Cc1ccc(-c2ccccc2-c2noc(=O)[nH]2)cc1 [Azilsartan] the fractional viability [1] was 1.2, the fractional viability [2] was 1.03 and the fractional viability [3] was 0.93. For the same compound, the fractional viability [4] was 0.962.

Work on COc1cc2nccc(Oc3ccc(NC(=O)C4(C(=O)Nc5ccc(F)cc5)CC4)cc3)c2cc1OC yielded a fractional viability [1] of 1.15, a fractional viability [2] of 1.17 and a fractional viability [3] of 0.615. For the same compound, the fractional viability [4] was 0.64.

For O=C(O)/C=C/c1ccc(Cn2ccnc2)cc1 [Ozagrel], the fractional viability [1] was 0.939, the fractional viability [2] was 1.1 and the fractional viability [3] was 0.816. The fractional viability [4] was 1.07.

O=C(O)/C=C/c1ccc(Cn2ccnc2)cc1 [Ozagrel HCl] was tested, and the fractional viability [1] was 0.923, the fractional viability [2] was 1.22 and the fractional viability [3] was 0.926. It also gave a fractional viability [4] of 1.1.

CCCc1nc(C)c2c(=O)nc(-c3cc(S(=O)(=O)N4CCN(CC)CC4)ccc3OCC)[nH]n12 [Vardenafil HCl Trihydrate] showed a fractional viability [1] of 0.995, a fractional viability [2] of 1.1 and a fractional viability [3] of 0.774. For the same compound, the fractional viability [4] was 1.05.

For CNC(=O)c1cc(COc2nnc(Nc3ccc(Cl)cc3)c3ccoc23)ccn1 [Telatinib], the fractional viability [1] was 0.895, the fractional viability [2] was 1.19 and the fractional viability [3] was 0.707. It also gave a fractional viability [4] of 0.949.

Oc1ccc(OCc2ccccc2)cc1 [Monobenzone] was tested, and the fractional viability [1] was 1.06, the fractional viability [2] was 1.17 and the fractional viability [3] was 0.777. For the same compound, the fractional viability [4] was 0.948.

Compound C[C@H]1C[C@H]2[C@@H]3CCC4=CC(=O)C=C[C@]4(C)[C@@]3(F)[C@@H](O)C[C@]2(C)[C@@]1(O)C(=O)CO [Betamethasone] has a fractional viability [1] of 1.25, a fractional viability [2] of 1.06 and a fractional viability [3] of 1.23. It also gave a fractional viability [4] of 1.08.
